The whole screen tested about 52,000 compounds, of which about 4,300 (8.3%) were called active. Cut-off read from the data, not from the text of the source: active = survival mostly below about 52% (no sharp cut-off); inactive = mostly above about 56%. The list shows a part of the results.

The experiment concerns DeltatarO mutant. Nature of the experiment: S. aureus survival, RN4220 and DeltatarO strains – OD600, teichoic acid synthesis inhibitors, primary screen (AID 463173). To be noted: S. aureus RN4220 wild type/DeltatarO growth, OD600, 18 h, stronger effect = lower value, screened at 18.75 µg/mL (by protocol).
On to `Cc1ccccc1NS(=O)(=O)c1ccc2[nH]cc(C(=O)N3CCCCC3)c(=O)c2c1`, for which the survival is inactive: 71%.

On to `CN(C)c1nc(OCCNC(=O)COc2ccccc2Cl)nc(N(C)C)n1`, for which the survival is inactive: 84%.

On to `COc1ccc(C)cc1-n1nnc(-c2nc(-c3ccccc3Cl)no2)c1N`, for which the survival was inactive: 70%.

Consider `COc1ccc(N=c2oc3ccc(Cl)cc3cc2C(=O)NCc2ccco2)cc1OC`, for which the survival is inactive: 96%.

Take `Cc1ccccc1CN1C(=O)c2ccccc2Sc2ccc(C(=O)N3CCCC3)cc21`: the survival was inactive: 78%.

For `CCOc1ccc(CNCc2c(C(=O)O)n(Cc3ccc(C)cc3)c3cc(C)ccc23)cc1`, the survival was active: 12%.

`Cc1cccc(C(=O)N2CCc3cc(CNS(=O)(=O)c4ccc(Cl)s4)ccc32)c1`: the survival was inactive: 74%.

With `CCCCN(CC)CCNC(=O)c1cc2c(=O)[nH]c3ccccc3c2n1C`, the survival was inactive: 85%.

With `C=CCNC(=O)CN1CCC(O)(c2ccccc2F)CC1`, the survival was inactive: 97%.

With `CC1Cc2cc(CSC(=N)N)ccc2O1` (centres undefined), the survival is inactive: 80%.

As for `CN1CCN(S(=O)(=O)c2cccc3nsnc23)CC1`, the survival is inactive: 91%.

On to `CC(C)c1ccc(C(=O)Nc2cc(-c3ccccc3F)nn2-c2ccccc2)cc1`, for which the survival was inactive: 73%.

For the molecule `Cc1c(C(N)=O)sc2ncn(Cc3ccccc3)c(=O)c12`, the survival is inactive: 85%.

In the case of `COc1ccccc1N1CCN(S(=O)(=O)c2ccc(S(=O)(=O)NC3CCCC3)cc2)CC1`, the survival is active: 55%.

As for `O=Nc1[nH]c(O)c2cc(Br)ccc12`, the survival is inactive: 52%.

For the molecule `Cc1ccc(-c2nnn3c2nc(NCCc2ccc(Cl)cc2)c2ccccc23)cc1`, the survival was inactive: 82%.

With `CCOc1ccc(C2Nc3c(C)cccc3-c3cc(C)nn32)cc1` (centres undefined), the survival is active: 0%.

Consider `Oc1ccc2ccccc2c1CN1CCCC1`, for which the survival was inactive: 102%.

Regarding `CCOc1ccccc1C(=O)Nc1c(C(=O)Nc2ccc(F)cc2)oc2ccccc12`, the survival was inactive: 83%.

Take `Cn1c(=O)c(=O)n(C)c2cc(S(=O)(=O)CCC(=O)Nc3ccc(F)cc3)ccc21`: the survival was inactive: 83%.

In the case of `Cc1nn(CC(=O)O)c2c1C1C(C2)C1(C)C` (centres undefined), the survival was inactive: 91%.

Regarding `Cc1oc2ncnc(N3CCOCC3)c2c1C(=O)N(Cc1ccccc1)C(C)C`, the survival is inactive: 81%.

On to `CC1=NN(C(=O)c2cccnc2)C(O)(c2ccccc2)C1` (centres undefined), for which the survival is inactive: 94%.

Regarding `O=C1Nc2ccccc2C12Nc1ccccc1CO2` (centres undefined), the survival was inactive: 75%.

Take `O=C(C1CCN(Cc2ccccc2)CC1)N1CCN(c2ccccc2F)CC1`: the survival is inactive: 89%.

For `COc1ccc(S(=O)(=O)NCC(c2ccco2)S(=O)(=O)c2cccs2)cc1C` (centres undefined), the survival was inactive: 83%.

In the case of `Cc1c(C(=O)N2CCCCCC2)c(S(=O)(=O)NCc2ccc(Br)cc2)c(C)n1C`, the survival was inactive: 99%.

On to `Cc1ccc(-c2nc3ccccn3c2Nc2ccccc2C)s1`, for which the survival is active: 21%.

As to `COC(=O)c1ccc(NC(=O)NCCn2nnc3cc(S(=O)(=O)N(C)C)ccc32)cc1`, the survival was inactive: 81%.

In the case of `COc1ccc(Nc2cc(C(=O)NC3CCC(C)CC3)c3ccccc3n2)cc1OC` (centres undefined), the survival was inactive: 86%.

As to `Cc1cc(C)nc(SCC(=O)OCN2C(=O)c3ccccc3C2=O)n1`, the survival was inactive: 97%.

Turning to `CC(C)(C)NC(=O)Cn1c(SCC(=O)c2ccc3c(c2)OCCO3)nc2ccccc21`, the survival was inactive: 86%.

On to `COc1ccc(CNC(=O)CN2C(=O)CSc3ccc(S(=O)(=O)N4CCOCC4)cc32)c(OC)c1`, for which the survival was inactive: 91%.

Consider `COc1cccc(CNC(=O)c2cc(S(=O)(=O)N3CCCCC3)cn2C)c1`, for which the survival is active: 0%.

In the case of `CC(=O)Nc1ccc(NC(=O)CSc2nc3ccccc3nc2N2CCC(C)CC2)cc1`, the survival was inactive: 75%.

`O=c1c(S(=O)(=O)c2ccccc2)cn(Cc2cccc(F)c2)c2cc(N3CCOCC3)c(F)cc12`: the survival is inactive: 78%.

Take `COc1ccc(OC(=O)c2nc(SCc3ccc(F)cc3)ncc2Cl)cc1`: the survival is inactive: 70%.

With `Cc1ccc(C2=NN(CC(=O)NCCC(C)C)C(=O)CC2)cc1`, the survival is active: 37%.

`COc1cccc(-c2nnc(-c3ccccc3NC(=O)c3cccc(C(F)(F)F)c3)o2)c1`: the survival is inactive: 68%.

As to `COc1ccc(NC(=O)c2ccco2)cc1NC(=O)COc1ccccc1`, the survival is active: 45%.

As to `Cc1ccc(C(=O)Nc2nnc(S(=O)(=O)N3c4ccccc4CC3C)s2)cc1` (centres undefined), the survival was active: 30%.

For the molecule `Cn1c(=O)n(C)c2cc(N3CCOCC3)c(NC(=O)c3ccccc3Br)cc21`, the survival was inactive: 82%.

For `CCc1ccc(S(=O)(=O)c2cn(C)c3cc(N4CCC(C)CC4)c(F)cc3c2=O)cc1`, the survival was inactive: 78%.

Take `Cc1cc(C)cc(NC(=O)CN2C(=O)c3ccccc3Sc3ncccc32)c1`: the survival was inactive: 90%.

For the molecule `CCCCN(CC)CCCNC(=O)c1cc2c(=O)[nH]c3ccccc3c2s1`, the survival is inactive: 151%.

Take `COc1ccc(CNC(=O)c2ccc3c(c2)nc2n3CCOC2)c(OC)c1`: the survival is inactive: 70%.

On to `Cc1ccc(CN(Cc2ccco2)C(=O)COc2ccc(C(C)C)cc2)cc1`, for which the survival is inactive: 89%.

In the case of `CCOc1ccc(CCNC(=O)CN2N=C(c3ccccc3)CCC2=O)cc1OCC`, the survival was inactive: 88%.

Turning to `Cc1cccc(N2CCN(c3cccc(C)c3)C2c2cccnc2)c1`, the survival is inactive: 107%.

Regarding `CC(=O)c1ccc(NC(=O)CSc2nc(-c3cccc(F)c3)nc3c2c(=O)n(C)c(=O)n3C)cc1`, the survival was inactive: 74%.

In the case of `CCOC(=O)c1cnc2c(CC)cccc2c1NCCO`, the survival is inactive: 95%.

`CCC(=O)C1=C(c2cccc(OC)c2)N(C(=O)CC)n2c(nnc2C2CCCCC2)S1`: the survival was inactive: 60%.

Take `COc1cccc(NC(=O)C2CCN(c3nn4cc(-c5ccc(F)cc5)nc4s3)CC2)c1`: the survival was inactive: 73%.

Consider `Cc1cccc(C)c1OCc1nc2c3c(-c4ccccc4)c(-c4ccccc4)oc3ncn2n1`, for which the survival is inactive: 68%.

Regarding `Cc1ccc(NC(=O)Cn2c(=O)oc3cc(S(=O)(=O)NCc4ccccc4)ccc32)cc1`, the survival was inactive: 71%.

As to `CCn1cc(C(=O)N2CCN(c3ccc(C(C)=O)cc3)CC2)c2cc(OC)c(OC)cc2c1=O`, the survival is inactive: 164%.

`Cc1ccc(-c2cc(C(F)(F)F)c(C#N)c(SCC(=O)Nc3ccccc3)n2)cc1`: the survival is active: 53%.

`O=C1c2ccc(-c3ccc4c(c3)C(=O)N(CCO)C4=O)cc2C(=O)N1CCO`: the survival was inactive: 87%.

Regarding `CCOc1cccc(C2c3c(-c4cc(C)ccc4O)n[nH]c3C(=O)N2Cc2ccco2)c1` (centres undefined), the survival was active: 8%.

These data come from PubChem BioAssay AID463173 (ICCB-Longwood Screening Facility, Harvard Medical School, 2010).
